Experimental data reported in PubChem BioAssay AID504339 (National Center for Advancing Translational Sciences (NCATS), 2011).
The whole screen tested about 390,000 compounds, of which about 17,000 (4.4%) were called active. The shares of active, inactive and inconclusive entries below differ from those in the screen. Calls come from the whole dose curve; as a rule, active = well fitted inhibition curve with a large enough effect; inconclusive = small, poorly fitted or top-dose-only effect; inactive = no such curve, though single readings can be large or run the other way. Where the call is inconclusive, the potency comes from a doubtful curve fit.

The molecules below were run against Lysine-specific demethylase 4A (Homo sapiens) (UniProt O75164) (assay: qHTS Assay for Inhibitors of JMJD2A-Tudor Domain). Conditions: AlphaScreen JMJD2A-Tudor / H3K4me3 peptide binding; activity change, negative = inhibition: at 114 µM (top of the series).
UniProt O75164, sequence (O75164 whole entry, looked up, the tested form may be a part): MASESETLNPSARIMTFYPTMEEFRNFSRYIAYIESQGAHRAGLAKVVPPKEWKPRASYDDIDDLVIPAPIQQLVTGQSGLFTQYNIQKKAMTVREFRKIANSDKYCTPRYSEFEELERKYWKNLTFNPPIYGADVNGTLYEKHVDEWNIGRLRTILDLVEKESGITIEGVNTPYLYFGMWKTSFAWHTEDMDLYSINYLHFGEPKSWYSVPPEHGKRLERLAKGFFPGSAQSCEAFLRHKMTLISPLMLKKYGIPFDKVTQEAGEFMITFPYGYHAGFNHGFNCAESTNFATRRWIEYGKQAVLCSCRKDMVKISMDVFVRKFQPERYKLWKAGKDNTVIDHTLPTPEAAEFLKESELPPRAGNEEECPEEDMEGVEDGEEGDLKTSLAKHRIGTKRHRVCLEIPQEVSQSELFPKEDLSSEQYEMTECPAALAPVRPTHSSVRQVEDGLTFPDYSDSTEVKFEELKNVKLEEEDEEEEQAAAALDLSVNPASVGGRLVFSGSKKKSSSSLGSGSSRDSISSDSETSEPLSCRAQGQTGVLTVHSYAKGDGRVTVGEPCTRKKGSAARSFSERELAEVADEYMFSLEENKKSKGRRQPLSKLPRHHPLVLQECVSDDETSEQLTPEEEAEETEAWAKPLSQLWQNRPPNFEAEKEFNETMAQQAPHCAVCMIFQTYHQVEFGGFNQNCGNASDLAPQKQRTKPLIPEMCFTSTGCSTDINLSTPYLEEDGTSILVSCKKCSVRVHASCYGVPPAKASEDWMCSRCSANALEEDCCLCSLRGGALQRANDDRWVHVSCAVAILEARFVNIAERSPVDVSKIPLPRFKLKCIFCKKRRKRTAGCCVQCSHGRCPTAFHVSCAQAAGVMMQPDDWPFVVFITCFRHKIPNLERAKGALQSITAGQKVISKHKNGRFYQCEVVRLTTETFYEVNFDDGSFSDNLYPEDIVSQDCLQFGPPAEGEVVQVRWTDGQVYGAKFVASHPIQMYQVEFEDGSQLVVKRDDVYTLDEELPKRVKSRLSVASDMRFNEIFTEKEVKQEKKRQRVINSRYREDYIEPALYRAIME
% is set by controls: 0 for no effect and ±100 for the full control effect; potency is the fitted concentration of half-maximal effect; tags give direction and shape of the fitted curve.
Note: nearly all actives have a fitted effect of over 50% in size.

Structure (SMILES) | Potency | activity change, negative = inhibition
Cc1ccc(-c2nn(-c3ccccc3)cc2/C=N/n2c(-c3cccs3)n[nH]c2=S)cc1 | inconclusive: 50.1 µM [inhibitor, partial curve] | –
COc1cc(C2CC(=O)Nc3cc4c(cc32)OCCO4)cc(OC)c1O (stereo not drawn) | inactive | –
CCOC(=O)N1CCN(C(=O)C2CCN(Cc3ccc(OC)cc3OC)CC2)CC1 | active: 1 µM | –
Cc1ccc(-c2n[nH]c(=S)n2/N=C/c2c(C)nn(-c3ccccc3)c2C)cc1 | active: 79.4 µM | –
COc1ccc(N2CCN(c3oc(/C=C/c4cccc(OC)c4)nc3C#N)CC2)cc1 | inconclusive: 8.91 µM [inhibitor, full curve, poor fit] | –
CC1CCN(CC(=O)N2c3ccccc3CC2C)CC1 (stereo not drawn) | inactive | –
Cn1cc(S(=O)(=O)NCc2ccco2)c(=O)n(C)c1=O | inactive | –
CCOC(=O)c1ccc(NC(=O)c2cnccn2)cc1 | inconclusive: 39.8 µM [inhibitor, partial curve, poor fit] | –
C[N+](C)(C)CC(=O)N/N=C/c1c2ccccc2cc2ccccc12 | inconclusive: 89.1 µM [inhibitor, partial curve] | –
Cc1cc(-c2ccccc2)nc(N/N=C/c2ccc(O)cc2O)n1 | inconclusive: 79.4 µM [inhibitor, partial curve] | –
O=C(O)c1cccnc1Nc1cccc(C(F)(F)F)c1 | inactive | –
O=C(c1ccccc1)c1ccc(C(=O)N2CCOCC2)cc1 | inactive | –
Clc1cccc(-c2ccc(-c3nc4ccccn4c3NCc3ccccc3)cc2)c1 | inconclusive: 50.1 µM [inhibitor, partial curve] | –
Cc1noc(C)c1COC(=O)CCc1nc2ccccc2s1 | inconclusive: 89.1 µM [inhibitor, single point] | –
COC(=O)c1c(-c2ccccc2Cl)noc1/C=C/N(C)C | inconclusive: 50.1 µM [inhibitor, partial curve, poor fit] | –
CCCOc1ccc(C(=O)CCC(=O)Nc2ccc(N3CCN(C)CC3)cc2)cc1 | active: 56.2 µM | –
O=C1C=CC(=O)N1c1ccc(Nc2ccccc2)cc1 | active: 50.1 µM | –
Nc1cc([N+](=O)[O-])ccc1OCc1ccccc1 | inconclusive: 20 µM [inhibitor, partial curve] | –
COc1ccc(CC(=O)Nc2cc(S(=O)(=O)N3CCOCC3)ccc2N2CCCC2)cc1OC | inactive | –
C/C(=N/Nc1nc(C)c(C)s1)c1cccc([N+](=O)[O-])c1 | inconclusive: 44.7 µM [inhibitor, partial curve] | –
Cc1ccc(N=C2NC(=O)S/C2=C\c2ccco2)cc1 | active: 17.8 µM | –
COc1ccc2c3n([n+]([O-])c2c1)CCN=C3c1ccc(Cl)cc1 | inconclusive: 56.2 µM [inhibitor, partial curve] | –
CCOC(=O)Nc1ccc(N2CCOCC2)c(S(=O)(=O)N2CCOCC2)c1 | inactive | –
CCOC(=O)c1c(C)oc2nc(C)nc(NCCc3ccc(S(N)(=O)=O)cc3)c12 | inactive | –
COc1ccc(N2CCN(C(CNC(=O)COc3ccccc3)c3ccco3)CC2)cc1 (stereo not drawn) | inconclusive: 50.1 µM [inhibitor, partial curve] | –

Structure (SMILES) | Potency | activity change, negative = inhibition
CCN1CCN(c2c(Cl)cccc2NC(=O)c2cc3ccccc3o2)CC1 | inconclusive: 56.2 µM [inhibitor, partial curve] | –
O=[N+]([O-])c1ccc(C[n+]2cccc3ccc4cccnc4c32)cc1 | active: 11.2 µM | –
O=C(/C=C/c1ccc(Cl)cc1Cl)N1CCN(c2ccccc2[N+](=O)[O-])CC1 | inconclusive: 20 µM [inhibitor, full curve] | –
Cc1cc(O)ccc1Nc1nc(-c2cccs2)cs1 | inconclusive: 56.2 µM [inhibitor, partial curve] | –
COc1ccccc1CNC(=O)CN1c2cccc3cccc(c23)S1(=O)=O | inactive | –
Cc1cc(C(=O)CSc2nnc(-c3cccc(F)c3)n2N)c(C)n1Cc1ccc2c(c1)OCO2 | inconclusive: 50.1 µM [inhibitor, partial curve] | –
CC1(OC(=O)C2CCCC2)C(=O)C=C2C=C(c3ccsc3)N(CC3CC3)C=C2C1=O (stereo not drawn) | inconclusive: 79.4 µM [inhibitor, partial curve] | –
CNc1ccc(OC(F)F)cc1C(=O)c1ccccc1 | inconclusive: 35.5 µM [inhibitor, partial curve] | –
CC(=O)n1cc(Nc2ccccc2C(=O)O)c2ccccc21 | inactive | –
COc1ccc2[nH]c(C)c(CCNC(=S)Nc3ccccc3OC)c2c1 | inconclusive: 79.4 µM [inhibitor, partial curve] | –
Cc1ccc2c(CN(C)Cc3ccc(OC(F)F)cc3)cc(=O)oc2c1C | inactive | –
O=C(Cn1c(C(=O)N2CCN(C3CCCCC3)CC2)cc2sccc21)c1ccccc1 | inconclusive: 50.1 µM [inhibitor, partial curve] | –
CCOc1ccc(NC(=O)CN(C)C(=O)c2ccc(N3CCCCCC3)c([N+](=O)[O-])c2)cc1OCC | active: 50.1 µM | –
Oc1cccc(NC(=S)N=Nc2c(O)[nH]c3ccccc23)c1 | inconclusive: 56.2 µM [inhibitor, partial curve] | –
Cn1c(=O)oc2cc(S(=O)(=O)Nc3ccccc3)ccc21 | inconclusive: 22.4 µM [inhibitor, full curve] | –
Cc1cccc(CCNCc2c(C(=O)O)c(C)n(-c3ccccc3)c2C)c1 | inconclusive: 50.1 µM [inhibitor, partial curve] | –
CCNC(=O)CC1S/C(=N/N=C(\C)c2ccccc2)NC1=O (stereo not drawn) | inconclusive: 22.4 µM [inhibitor, full curve, poor fit] | –
CCOC(=O)N1CCC(NCCNC(=O)c2cccc(F)c2)CC1 | inactive | –
CCCCN=C1NN=C(c2cc3ccccc3o2)CS1 | – | inconclusive: -37% [inhibitor]
Cc1ccccc1OCC(=O)N(Cc1ccc(C(C)C)cc1)C1CCS(=O)(=O)C1 (stereo not drawn) | inactive | –
CN(Cc1ccccc1)C1=CC(=[N+]2CCCC2)CC(C)(C)C1 | active: 8.91 µM | –
CS(=O)(=O)Nc1ccc(C(=O)Nc2ccccc2Sc2ccccc2)cc1 | inconclusive: 56.2 µM [inhibitor, partial curve] | –
C=CCn1cnc2c(nnn2-c2ccc(C)c(Cl)c2)c1=O | inactive | –
COc1ccccc1-c1cnn2c(NC3CCCC3)cc(C)nc12 | inactive | –
O=C(O)c1cccc(O)c1O | inconclusive: 100 µM [inhibitor, single point] | –

Structure (SMILES) | Potency | activity change, negative = inhibition
CC(C)C1Nc2ccc(S(N)(=O)=O)cc2C2C=CCC21 (stereo not drawn) | inconclusive: 79.4 µM [inhibitor, partial curve] | –
CC(C)CNS(=O)(=O)c1ccc(CCC(=O)Nc2ccc3c(c2)OCO3)cc1 | inactive | –
Cc1ccc(C)c(CN2C(=O)C(O)(c3c[nH]c4ccccc34)c3ccccc32)c1 (stereo not drawn) | inconclusive: 44.7 µM [inhibitor, partial curve] | –
NS(=O)(=O)c1ccc(NC2=CC(=O)C(=O)c3ccccc32)cc1 | active: 22.4 µM | –
c1ccc2c3c([nH]c2c1)CCNC3 | inconclusive: 56.2 µM [inhibitor, partial curve, poor fit] | –
Cn1c(=O)c2ccccc2n2c(=S)[nH]nc12 | active: 3.16 µM | –
COc1ccccc1C1C(C#N)=C(N)Oc2c1c(-c1ccccc1)nn2-c1ccccc1 (stereo not drawn) | inconclusive: 50.1 µM [inhibitor, partial curve] | –
Cc1ccc(S(=O)(=O)N2CCN(C(=O)c3ccc4ccccc4n3)CC2)c(C)c1 | active: 35.5 µM | –
CCOC(=O)c1[nH]cnc1C(=O)Nc1ccccc1OC | inconclusive: 3.55 µM [inhibitor, partial curve, poor fit] | –
Cc1ccc(Cl)c(OCCCN(C)Cc2ccccc2)c1 | active: 1.12 µM | –
O=C(NNC(=S)Nc1ccc(Br)cc1)c1ccc(N2CCOCC2)c([N+](=O)[O-])c1 | inconclusive: 14.1 µM [inhibitor, full curve] | –
CCOc1ccc(-c2c(=O)n(O)c3ccccc3[n+]2[O-])cc1 | active: 79.4 µM | –
COc1cc(O)c(C(CC(=O)N2CCCC(C)C2)c2ccc(N(C)C)cc2)c(OC)c1 (stereo not drawn) | active: 39.8 µM | –
COc1cc2c(cc1OC)C(COc1ccc(C(C)C)cc1)N(C(=O)COc1ccccc1)CC2 (stereo not drawn) | inconclusive: 44.7 µM [inhibitor, partial curve] | –
COc1ccccc1-c1nc(C#N)c(N2CCc3ccccc3C2)o1 | inconclusive: 14.1 µM [inhibitor, full curve] | –
N#C/C(=N\Nc1cccc(Cl)c1)C(=O)c1ccccc1 | inconclusive: 100 µM [inhibitor, single point] | –
COc1ccc(N2CCN(C(=O)COC(=O)c3cc(S(=O)(=O)N(C)C)ccc3N3CCCC3)CC2)cc1 | inconclusive: 35.5 µM [inhibitor, full curve, poor fit] | –
c1ccc(-c2cn(C[C@H]3CC[C@H](Cn4cc(-c5ccccn5)nn4)O3)nn2)nc1 | active: 0.891 µM | –
Clc1ccc(-c2cnc3n2CCCCC3)cc1 | inconclusive: 56.2 µM [inhibitor, partial curve] | –
CCN(CC)c1ccc(C2C3CCCCC3(O)CCN2CC(=O)Nc2ccccc2)cc1 (stereo not drawn) | inconclusive: 31.6 µM [inhibitor, full curve, poor fit] | –
COc1ccc(CCNC(=O)CNS(=O)(=O)c2ccc(F)c(Cl)c2)cc1OC | inactive | –
c1ccc(-c2nc(NCc3ccco3)c3oc4ccccc4c3n2)cc1 | active: 89.1 µM | –
CC(=O)Nc1cccc(-c2csc(Nc3ccc(C)cn3)n2)c1 | inconclusive: 70.8 µM [inhibitor, single point] | –
